Data: PubChem BioAssay AID1345082 (National Center for Advancing Translational Sciences (NCATS), 2018)
The campaign covered roughly 94,000 compounds. About 4,000 (4.3%) were called active. Inconclusive means that the source gave no clear call. Such entries were picked first, then a sample of the others. Calls follow the shape of the dose curve; as a rule, active = well fitted inhibition curve with a large enough effect; inconclusive = small, poorly fitted or top-dose-only effect; inactive = no such curve, though single readings can be large or run the other way. Potencies of inconclusive entries are doubtful fits and often do not repeat.

Experiment: Cytotoxic Profiling in NIH 3T3 Cell Line of Diverse Libraries Using Quantitative High-Throughput Screening; also: nearly all actives have a fitted effect of over 55% in size
Settings: NIH 3T3 viability, CellTiter-Glo ATP luminescence, 48-72 h; activity change, negative = cytotoxicity: at 96.7 µM (top of the series) unless noted; series mostly up to 96.7 µM
How it was run: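 Cells were seeded at 400 per well, treated with pin-transferred compound, and kept 48 or 72 hr at 37 °C before CellTiter-Glo addition and luminescence imaging of cellular ATP.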
% is scaled to controls: 0 for no effect and ±100 for the full control effect; potency is read from the fitted curve at half-maximal effect; tags tell the direction and shape of the fitted curve.

Row | SMILES | Potency | activity change, negative = cytotoxicity
1 | COc1cccc(CN2CCNc3cc(Nc4ccccc4)ncc3C2)c1 | active: 39.8 µM | –
2 | O=C1Nc2ccc(-c3ccco3)cc2C(=O)N2CCN(C(=O)NC3CCCCC3)C[C@H]12 | inconclusive: 100 µM [inhibitor, partial curve, poor fit] | –
3 | Cc1ccccc1-c1cc2c(nc1-c1ccccc1)nc(C(=O)NCCN(C)C)n2C | active: 25.1 µM | –
4 | COc1cccc(CNC[C@H]2O[C@H](Cc3cc(-c4ccccc4)on3)CC[C@@H]2O)c1 | inconclusive: 112 µM [inhibitor, partial curve, poor fit] | –
5 | CC(C)CNC(=O)CN1CCOc2c(O)cc(-c3cccc(Cl)c3)cc2C1 | inconclusive: 44.7 µM [inhibitor, partial curve, poor fit] | –
6 | Cc1ccc(S(=O)(=O)N2CCC(CC(=O)NCc3ccccc3)C2)cc1F (configuration not stated) | – | inactive: -27.5%
7 | O=C(c1ccc2c(c1)OCO2)N1CCC(N2Cc3ccccc3C2=O)CC1 | – | inactive: -9.08%
8 | C=CCN(Cc1ccccc1OC)C(=O)c1cnc2ccccn12 | inconclusive: 50.1 µM [inhibitor, partial curve, poor fit] | –
9 | COCCN1C(=O)CCC2(CNC(=O)c3cc(F)ccc3F)CCCC=C12 (configuration not stated) | – | inactive: -15.3%
10 | O=C(c1ccc(-c2ccc(N3CCCCC3)nc2)cc1)N1CCCC1 | active: 39.8 µM | –
11 | N#Cc1ccc(CN2CC[C@@H]3OCC(=O)N(c4ccccc4)[C@H]3CC2)cc1 | inconclusive: 79.4 µM [inhibitor, partial curve] | –
12 | COCCNC(=O)c1ccc(OC2CCN(CCC(C)c3ccc(C)o3)CC2)c(Cl)c1 (configuration not stated) | inconclusive: 56.2 µM [inhibitor, partial curve, poor fit] | –
13 | O=C1OC[C@@H]2CCN(Cc3ccc4c(c3)OCO4)Cc3ccc(F)cc3N12 | – | inactive: -3.76% [at 174 µM]
14 | Cc1cccc(N2C(=O)CSC23CCN(C(=O)C2CCC2)CC3)c1 | inconclusive: 50.1 µM [inhibitor, partial curve, poor fit] | –
15 | O=C1c2cc(N3CCOCC3)nc(-c3ccccc3Oc3ccccc3)c2CN1C1COC1 | inconclusive: 5.01 µM [inhibitor, full curve, poor fit] | –
16 | CCN1CC(C(=O)N(C)Cc2ccc(Oc3ccccc3)cc2)CCC1=O (configuration not stated) | inconclusive: 17.8 µM [inhibitor, full curve, poor fit] | –
17 | COc1cc(CN2CC[C@H](CNC(=O)C3CC3)[C@H](N(C)C)C2)cc(OC)c1 | – | inactive: 0.23%
18 | Cc1ccc(OCCC2CCN(C(=O)c3ccsc3)C2)cc1 (configuration not stated) | inconclusive: 35.5 µM [inhibitor, partial curve] | –
19 | COc1ccc(OC)c(NC(=O)N2C[C@@H](F)C[C@H]2C(=O)N2CCCCC2)c1 | active: 11.2 µM | –
20 | O=C(NCc1cccc(F)c1)C1(c2ccc(Cl)cc2)CCOCC1 | – | inactive: -23.3% [at 138 µM]
21 | CN(C)C1(Cc2cc(COc3ccccc3)on2)COC1 | inconclusive: 89.1 µM [inhibitor, partial curve, poor fit] | –

Row | SMILES | Potency | activity change, negative = cytotoxicity
22 | Cc1cc(-c2nn(-c3ccccc3F)cc2CN2CCCC(C#N)C2)c(C)s1 (configuration not stated) | inconclusive: 79.4 µM [inhibitor, single point] | –
23 | COc1ccc([C@H]2C[C@@H](O)[C@@H](O)[C@@H]2NCc2cccc(C(F)(F)F)c2)cc1 | inconclusive: 126 µM [inhibitor, single point] | –
24 | O=C(NCCc1ccccn1)[C@@H]1CCCN1c1ccnc2ccnn12 | inconclusive: 44.7 µM [inhibitor, partial curve, poor fit] | –
25 | O=C1c2c(nc(CNCc3cccc(Cl)c3)n2Cc2ccccc2)NCCN1Cc1ccccc1 | inconclusive: 44.7 µM [inhibitor, partial curve, poor fit] | –
26 | CC(C)N1CCn2nc(C(=O)NCCc3ccc(Cl)cc3)cc2C1 | inconclusive: 89.1 µM [inhibitor, single point] | –
27 | COc1cccc(OCc2nc3c(n2Cc2ccccc2)C(=O)N(CC2CCOCC2)CCN3)c1 | inconclusive: 50.1 µM [inhibitor, partial curve, poor fit] | –
28 | COc1cccc(NC(=O)c2ccc3c(c2)N(C)C2CCCCN2C3=O)c1 (configuration not stated) | inconclusive: 50.1 µM [inhibitor, partial curve, poor fit] | –
29 | Cc1nonc1C1CCCN1C(=O)c1cn(Cc2ccccc2F)nn1 (configuration not stated) | – | inactive: -1.66%
30 | COc1ccc(C(=O)N2CCCC(c3nnnn3C)C2)cc1 (configuration not stated) | – | inactive: -22.5%
31 | O=C1CC(c2ccccc2)N(C(=O)C2CC2)CCCN(S(=O)(=O)Cc2ccccc2)CCN1 (configuration not stated) | – | inactive: -21.7%
32 | Cc1ccsc1CN1CCCCCNC(=O)CC1c1ccccc1 (configuration not stated) | inconclusive: 44.7 µM [inhibitor, partial curve, poor fit] | –
33 | O=C(NCc1cccc(C(F)(F)F)c1)c1cnc(-c2ccccc2)nc1-c1ccncc1 | inconclusive: 70.8 µM [inhibitor, single point] | –
34 | Cc1c(CN(C)CC2(O)CCCN(Cc3ccc(C(C)C)cc3)C2=O)cnn1C (configuration not stated) | – | inactive: -11.2%
35 | COc1cc(-c2cn(C)c(=O)n3cc(COc4ccnn4C)nc23)ccn1 | inconclusive: 44.7 µM [inhibitor, partial curve] | –
36 | COc1ccc(CN2CCNc3cc(-c4ccccc4)ncc3C2)cn1 | inconclusive: 100 µM [inhibitor, single point] | –
37 | COc1ccc(-c2cc(-c3cccc(O)c3)cn3cncc23)cc1 | inconclusive: 20 µM [inhibitor, full curve, poor fit] | –
38 | O=C1[C@@H]2C[C@@H](CN2CC2CC2)Oc2ccccc2N1Cc1ccccn1 | inconclusive: 100 µM [inhibitor, single point] | –
39 | Cc1noc(C)c1-c1ncc2c(n1)OCCN(Cc1ccccc1)C2=O | inconclusive: 17.8 µM [inhibitor, partial curve, poor fit] | –
40 | Cc1ccc(-c2cccc(CN3CCCC3C(=O)NCc3cccc(C(F)(F)F)c3)c2)cc1Cl (configuration not stated) | active: 39.8 µM | –
41 | CC(C)(O)CCc1cccc(C(=O)NCc2ccccc2Cn2cccn2)c1 | active: 22.4 µM | –
42 | Cn1cc(C(=O)N2CCCC(C)(Cc3ccc4c(c3)OCO4)C2)c(=O)[nH]c1=O (configuration not stated) | inconclusive: 89.1 µM [inhibitor, partial curve, poor fit] | –
